# Test results: PubChem BioAssay AID686979 (National Center for Advancing Translational Sciences (NCATS), 2013)
# Several values for one entry are separate records, joined by “and”; a condition that tells them apart may be missing. Equal values may be shown once. Out of some 420,000 compounds screened, about 50,000 (12%) were called active. The shares of active, inactive and inconclusive entries below differ from those in the screen. Calls follow the shape of the dose curve; as a rule, active = well fitted inhibition curve with a large enough effect; inconclusive = small, poorly fitted or top-dose-only effect; inactive = flat fitted curve, though single readings scatter. Potencies beside an inconclusive call are fits to weak or partial responses and may not hold up.
# Assay: qHTS for Inhibitors of human tyrosyl-DNA phosphodiesterase 1 (TDP1): qHTS in cells in presence of CPT; also: nearly all actives have a fitted effect of over 55% in size
# Conditions: chicken DT40 Tdp1-/-;hTDP1 cells + 20 nM CPT, ATP luminescence, 48 h; activity change, negative = growth inhibition: at 46.2 µM (top of the series) unless noted
# Summary of the method: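 Cell growth measured by CellTiter-Glo luminescence after a minimum 48 h, 37 C compound exposure with 20 nM CPT in Tdp1-knockout DT40 cells stably expressing hTDP1, seeded 400/well; qHTS titration format.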
# % is scaled to controls: 0 for no effect and ±100 for the full control effect; potency is read from the fitted curve at half-maximal effect; tags tell the direction and shape of the fitted curve.
Compound,Potency,"activity change, negative = growth inhibition"
CCN(CC)CC(=O)Nc1ccc(Cl)cc1C(=O)c1ccccc1,"inconclusive: 29.1 µM [inhibitor, single point]",–
COc1ccc(NC(=O)CCn2cnc3onc(-c4ccc(F)cc4)c3c2=O)cc1OC,active: 2.91 µM,–
CN1C(=O)C(=Cc2ccccc2OCCOc2ccc([N+](=O)[O-])cc2)C(=O)N(C)C1=O,"inconclusive: 29.1 µM [inhibitor, single point]",–
CCOC(=O)C1CCCN(c2ccc([N+](=O)[O-])c3nonc23)C1 (configuration not stated),"inconclusive: 23.1 µM [inhibitor, single point]",–
CN1CCN(CCOC2c3ccccc3CSc3ccc(Cl)cc32)CC1 (configuration not stated),"inconclusive: 23.1 µM [inhibitor, single point]",–
CC(C)(C)OC(=O)NCc1ccc(CNC(=O)c2[nH]cnc2C(=O)Nc2ccccc2F)cc1,active: 13 µM,–
COC(=O)C1=C(c2ccc(-c3ccccc3)c(F)c2)C[C@@H]2CC[C@H]1N2C(=O)N1CCCCC1,active: 2.31 µM,–
CCOC(=O)[C@]12Cc3ccccc3[C@H]1N(C(C)C)C(=O)c1cc(OC)ccc12,active: 23.1 µM,–
CCC(C)N1C(=O)NC(=O)C2(Cc3c(ccc4ccccc34)N(C)C2)C1=O (configuration not stated),"inconclusive: 29.1 µM [inhibitor, single point]",–
C=CCNC(=S)/N=C/c1c(O)[nH]c(=O)[nH]c1=O,inactive,–
CCOC(=O)[C@]12Cc3cc(Cl)ccc3[C@H]1N(C(C)C)C(=O)c1ccccc12,active: 2.59 µM,–
Cc1cccc(-n2c(/C=C/c3cn(C)c4ccccc34)nc3ccccc3c2=O)c1,active: 6.51 µM,–
CCCCCc1cc(O)c2c(c1)OC(C)(C)[C@@H]1CCC(C)=C[C@@H]21,active: 21.1 µM,–
CC(=NC1CCN(Cc2ccccc2)CC1)c1c(O)n(C)c(=O)n(C)c1=O,inactive,–
Cc1cccc(CS(=O)(=O)Cc2ccc(C(=O)N3CCC4(CC3)OCCO4)o2)c1,"inconclusive: 0.291 µM [inhibitor, full curve, poor fit]",–
Cn1cnnc1Sc1cc(N2CCNCC2)ccc1[N+](=O)[O-],inactive,–
[Cl][In]([Cl])[Cl],"inconclusive: 22.4 µM [inhibitor, single point]",–
CCN(C1CCCCC1)S(=O)(=O)c1ccc(S(=O)(=O)N(CC(=O)Nc2ccccc2)C2CC2)cc1,"inconclusive: 29.1 µM [inhibitor, single point]",–
O=C1c2cccc3cccc(c23)C(=O)N1CCN1CCN(C(=S)Nc2ccccc2)CC1,"inconclusive: 29.1 µM [inhibitor, single point]",–
Cc1ccc(C)c(OCC(=O)N2CCN(Cc3ccc4c(c3)OCO4)CC2)c1,"inconclusive: 18.4 µM [inhibitor, single point]",–
NCC(CP(=O)(O)O)c1ccc(Cl)cc1 (configuration not stated),inactive,–
CC1CN2C(=O)C1(c1ccccc1)C(=O)NC2=S (configuration not stated),inactive,–
Cc1c(/C=N/O)c2ccccc2n1C,inactive,–
COCCN(CCOC)S(=O)(=O)c1ccc(C(=O)Nc2sc3c(c2C(N)=O)CCCC3)cc1,"inconclusive: 20.6 µM [inhibitor, single point]",–

Compound,Potency,"activity change, negative = growth inhibition"
COc1ccccc1Oc1c(C)oc2cc(OC(=O)N(C)C)ccc2c1=O,inactive,–
COc1ccc(CCNCc2sccc2C)cc1,"inconclusive: 18.4 µM [inhibitor, single point]",–
O=C1/C(=C/c2cc([N+](=O)[O-])ccc2Cl)N2CCC1CC2,active: 18.4 µM,–
O=c1oc2ccccc2cc1-c1cn2cc(Cc3ccc(F)cc3)sc2n1,active: 5.17 µM,–
CCCCc1ccc(NC(=O)c2ccc3c(c2)CCN3S(=O)(=O)CC)cc1,active: 7.31 µM,–
CCCCn1c(O)c(C=Nc2c(C)n(C)n(-c3ccccc3)c2=O)c(=O)[nH]c1=O,inactive,–
COc1ccc(C2SCC(=O)Nc3c2c(C)nn3C2CCOC(C)(C)C2)cc1OC (configuration not stated),inactive,–
CC(=O)Nc1ccc(CC(=O)N2CCN(Cc3ccccc3)CC2)cc1,inactive,–
O=C1NC(=O)C(=Cc2ccc(OCCOc3ccc([N+](=O)[O-])cc3)cc2)C(=O)N1,"inconclusive: 16.4 µM [inhibitor, single point]",–
CC1(C)CC/C(=C/c2ccc(Cl)cc2)C1(O)Cn1cncn1 (configuration not stated),"inconclusive: 30.6 µM [inhibitor, partial curve, poor fit]",–
CCOC(=O)c1cccc(C2=C(CNC(=O)c3nccs3)[C@H]3CC[C@@H](C2)N3Cc2ccccc2)c1,active: 14.6 µM,–
c1ccc2c3c([nH]c2c1)CNCC3,inactive,–
CC(C)(C)n1nnnc1C(c1cccc2ccccc12)N1CCC2(CC1)C(=O)NCN2c1ccccc1 (configuration not stated),"inconclusive: 29.1 µM [inhibitor, single point]",–
O=C1N(CN2CCOCC2)c2ccccc2C1(O)c1c[nH]c2ccccc12 (configuration not stated),–,inconclusive: -32.4% [inhibitor]
COc1ccc(CCNC(=O)c2c(N)n(CCN3CCOCC3)c3nc4ccccc4nc23)cc1OC,active: 14.6 µM,–
Cc1ccc(S(=O)(=O)N(C)c2ccc(C(=O)NCC3(N(C)C)CCCCC3)cc2)cc1,inactive,–
CN1C(=O)C[N+]([O-])=C(c2ccccc2)c2cc(Cl)ccc21,inactive,–
Cc1cc(OC(=O)c2cccs2)c2c3c(c(=O)oc2c1)CCCC3,active: 18.4 µM,–
CCOC(=O)C(C)(CC)NC(=O)CSP(=S)(OCC)OCC (configuration not stated),"inconclusive: 29.1 µM [inhibitor, single point]",–
Cc1ccc(-n2c(=O)[nH]c3ccc(Br)cc3c2=O)cc1,inactive,–
C=C(C)C1Cc2c(ccc3c2OC2COc4cc(OC)c(OC)cc4C2C3=O)O1 (configuration not stated),active: 0.0517 µM,–
COc1ccc(CCN)cc1O,inactive,–
CCN1C(=O)NC(=O)/C(=C/c2cc(C)n(-c3sc(C)c(C)c3C#N)c2C)C1=O,"inconclusive: 29.1 µM [inhibitor, single point]",–
Cc1cc2oc(=O)cc(-c3cc4ccccc4o3)c2cc1OC(=O)N(C)C,active: 14.6 µM,–

Compound,Potency,"activity change, negative = growth inhibition"
CCCCNC(=O)Nc1ccc(C(O)(C(=O)OC)C(F)(F)F)cc1 (configuration not stated),"inconclusive: 9.2 µM [inhibitor, partial curve]",–
CCCCn1nnnc1C(C1CC1)N1CCC(n2c(=O)[nH]c3ccccc32)CC1 (configuration not stated),"inconclusive: 18.4 µM [inhibitor, single point]",–
COc1ccccc1N1CCN(Cc2ccccc2)CC1,inactive,–
N#CC(C#N)=C(C#N)c1ccc(Nc2ccccc2)cc1,active: 10.3 µM,–
C=C1[C@@H](OC(C)=O)[C@]23C[C@@H]1[C@@H](OC(C)=O)CC2[C@]12C4C[C@H]3[C@H]1N(CC)C[C@]4(C)CC[C@@H]2O (some centres not stated),inactive,–
O=C(CF)NC(NC(=S)Nc1ccccc1O)C(Cl)(Cl)Cl (configuration not stated),"inconclusive: 0.0164 µM [inhibitor, full curve, poor fit]",–
COc1cc(CNCCc2c[nH]c3ccccc23)cc(OC)c1OC,–,inconclusive: -35.5% [inhibitor]
COc1ccc(-n2c(C)nc3ccccc3c2=O)c([N+](=O)[O-])c1,inactive,–
COC(=O)C1=C(c2ccc(OC(F)(F)F)cc2)C[C@@H]2CC[C@H]1N2C(=O)NCc1cccc2ccccc12,"inconclusive: 29.1 µM [inhibitor, single point]",–
CCOC(=O)c1c(C)[nH]c(C(=O)C(Cc2ccccc2)N(C)C)c1C (configuration not stated),"inconclusive: 23.1 µM [inhibitor, single point]",–
O=c1[nH]c2ccccc2n1C1CCN(C(c2ccccc2OC(F)(F)F)c2nnnn2-c2ccc3c(c2)OCCO3)CC1 (configuration not stated),active: 7.31 µM,–
O=[N+]([O-])c1ccc(N2CCCNCC2)c2ncccc12,"inconclusive: 29.1 µM [inhibitor, single point]",–
Cc1c(P(=S)(c2ccccc2)c2ccccc2)[n+]2ccccc2n1C,active: 5.8 µM,–
O=[N+]([O-])c1ccc(C[n+]2c(-c3ccccc3)cc(-c3ccccc3)cc2-c2ccccc2)cc1,active: 2.59 µM,–
CCOc1cc2c(cc1OCC)-n1cccc1C(c1ccc(OC)cc1)NC2 (configuration not stated),"inconclusive: 18.4 µM [inhibitor, single point]",–
COc1ccc(CCC(=O)N2CCC3(CC2)OCCO3)cc1,inactive,–
COC(=O)C1=C(c2ccc(F)cc2OCc2ccccc2)C[C@@H]2CC[C@H]1N2C(=O)NCc1ccc(N(C)C)cc1,"inconclusive: 20.6 µM [inhibitor, single point]",–
COC(=O)C1=C(c2cccc(OCc3ccccc3)c2)C[C@@H]2CC[C@H]1N2C(=O)NNCc1ccccc1,active: 20.6 µM,–
CCCCCCCCN1C(=O)[C@H](CC(=O)NCCCC)C[C@@]2(C(=O)OCC)CCCC=C12,active: 9.2 µM,–
C[C@@H]1CN([C@H](C)CO)C(=O)CCCn2nncc2CO[C@@H]1CN(C)C(=O)Oc1ccccc1,"inconclusive: 32.6 µM [inhibitor, partial curve, poor fit]",–
COP(=S)(OC)Oc1ccc(Sc2ccc(OP(=S)(OC)OC)cc2)cc1,"inactive and inconclusive: 18.4 µM [inhibitor, single point]",–
CCCCCCC(=O)CCCCCC/C=C/C[C@@H](O)[C@H](O)[C@@](N)(CO)C(=O)O,"inconclusive: 0.0596 µM [inhibitor, full curve]",–
C[C@H]1C[C@@H]2[C@H]([C@@H](O)C[C@@]3(C)[C@H]2CC[C@]3(O)C(=O)COC(=O)CCC(=O)O)[C@@]2(C)C=CC(=O)C=C12,"inconclusive: 3.76 µM [inhibitor, partial curve]",–
CC(=O)O[C@H]1CCC2C3CCC4=CC(=O)CCC4=C3C=C[C@@]21C (some centres not stated),"inconclusive: 29.1 µM [inhibitor, single point]",–
